Measured values from article PMC4147323.
Results are given in words; binding and its absence hold for the method and conditions named. Binding seen in cells or lysates may run through a third protein. Some results given as binding are weak or reduced against the parent protein; the word gives no strength.

The chains behind the UniProt entries cited, without tags or fusion partners.
UniProt P21796: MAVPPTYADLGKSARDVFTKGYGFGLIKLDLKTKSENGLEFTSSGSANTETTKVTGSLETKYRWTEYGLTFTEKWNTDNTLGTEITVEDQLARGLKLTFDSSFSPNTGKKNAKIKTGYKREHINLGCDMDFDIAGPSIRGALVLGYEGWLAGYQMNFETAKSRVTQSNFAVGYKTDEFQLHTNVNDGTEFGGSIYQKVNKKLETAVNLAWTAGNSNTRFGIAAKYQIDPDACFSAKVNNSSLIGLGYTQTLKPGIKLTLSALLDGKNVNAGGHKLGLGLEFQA

Columns and labels:
[1] = molecular target: T1, Never-in mitosis A-related protein kinase 1 (Nek1) (human (endogenous in HK2 and A498)) (UniProt Q96PY6); test: condition: only HK2 cells treated with H2O2 (soon after 0.01 mM or 0.1 mM; not re-associated after the lethal dose 0.1 mM); co-IP; HK2 cells treated with H2O2 (0.01 mM or 0.1 mM) for the specified times, lysates precipitated with anti-Nek1, blotted with anti-VDAC1
T1 sequence: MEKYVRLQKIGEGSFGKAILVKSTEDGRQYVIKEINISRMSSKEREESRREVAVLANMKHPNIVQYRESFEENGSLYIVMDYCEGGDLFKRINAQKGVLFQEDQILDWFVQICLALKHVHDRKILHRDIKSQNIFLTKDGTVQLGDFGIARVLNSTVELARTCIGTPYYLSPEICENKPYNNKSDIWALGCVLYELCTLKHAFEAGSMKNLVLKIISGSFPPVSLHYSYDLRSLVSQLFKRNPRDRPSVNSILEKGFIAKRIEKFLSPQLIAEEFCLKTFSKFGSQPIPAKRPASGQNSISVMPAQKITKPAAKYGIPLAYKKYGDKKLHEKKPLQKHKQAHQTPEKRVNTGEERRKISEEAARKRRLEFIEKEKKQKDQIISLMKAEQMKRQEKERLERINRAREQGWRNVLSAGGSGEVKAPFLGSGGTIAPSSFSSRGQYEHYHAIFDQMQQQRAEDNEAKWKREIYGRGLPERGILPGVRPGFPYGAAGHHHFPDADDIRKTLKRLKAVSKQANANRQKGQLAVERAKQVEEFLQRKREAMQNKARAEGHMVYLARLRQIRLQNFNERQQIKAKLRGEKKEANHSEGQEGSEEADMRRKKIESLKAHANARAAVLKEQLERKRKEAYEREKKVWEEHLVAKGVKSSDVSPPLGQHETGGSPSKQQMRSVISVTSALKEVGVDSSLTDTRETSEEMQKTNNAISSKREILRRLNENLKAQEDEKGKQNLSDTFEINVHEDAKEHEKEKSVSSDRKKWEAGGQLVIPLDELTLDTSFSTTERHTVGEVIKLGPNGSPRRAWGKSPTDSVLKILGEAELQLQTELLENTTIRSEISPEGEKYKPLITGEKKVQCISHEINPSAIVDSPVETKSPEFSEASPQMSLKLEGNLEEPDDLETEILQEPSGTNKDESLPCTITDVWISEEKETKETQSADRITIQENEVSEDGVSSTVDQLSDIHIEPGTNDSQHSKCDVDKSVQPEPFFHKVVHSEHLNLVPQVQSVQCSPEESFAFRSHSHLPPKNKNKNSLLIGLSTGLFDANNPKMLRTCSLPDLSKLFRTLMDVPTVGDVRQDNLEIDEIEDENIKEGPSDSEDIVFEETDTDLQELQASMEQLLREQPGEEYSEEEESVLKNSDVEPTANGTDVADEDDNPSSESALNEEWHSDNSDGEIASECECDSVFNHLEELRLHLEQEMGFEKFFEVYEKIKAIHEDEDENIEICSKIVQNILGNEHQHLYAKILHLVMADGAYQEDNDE

[2] = molecular target: T1, Never-in mitosis A-related protein kinase 1 (Nek1) (human (endogenous in HK2 and A498)); test: condition: only HK2 cells treated with MMS (dissociated 1 hour after 0.025% or 0.075% W/V; not re-associated 4 hours after the lethal dose 0.075% W/V); co-IP; HK2 cells treated with MMS for 1 hour (dose series; 0.025% or 0.075% W/V with recovery up to 4 hours), lysates precipitated with anti-Nek1, blotted with anti-VDAC1
[3] = molecular target: T1, Never-in mitosis A-related protein kinase 1 (Nek1) (human (endogenous in HK2 and A498)); test: condition: only A498 cells treated with a higher dose of MMS for 1 hour (dose not given); co-IP; A498 cells treated with a higher dose of MMS for 1 hour (dose not given), lysed, Nek1-VDAC1 complexes analysed by Western blotting as in Fig. 4
[4] = molecular target: T1, Never-in mitosis A-related protein kinase 1 (Nek1) (human (endogenous in HK2 and A498)); test: co-IP; clarified HK2 lysates (Lysis 250 buffer, freeze/thaw) precipitated with anti-Nek1 antibodies, blotted with anti-Nek1 or anti-VDAC1; mock-treated cells and cells recovering from a sublethal dose of H2O2 (0.01 mM, 60 min) or MMS (0.025% W/V, 4 hours)
[5] = molecular target: T1, Never-in mitosis A-related protein kinase 1 (Nek1) (human (endogenous in HK2 and A498)); test: co-IP; A498 cells, untreated or treated with lower doses of MMS for 1 hour, lysed, Nek1-VDAC1 complexes analysed by Western blotting as in Fig. 4

- binding [3]: no binding
- binding [5]: binds
Substance: voltage-dependent anion channel (VDAC1) (from UniProt P21796 1-283)
- binding [1]: no binding
- binding [2]: no binding
- binding [4]: binds
